PubChem BioAssay (NCATS)
Several values for one entry are separate records, joined by “and”; a condition that tells them apart may be missing. Equal values may be shown once. The inconclusive results got no clear call from the source; some entries with a clear call stand among them for comparison. Potencies beside an inconclusive call are fits to weak or partial responses and may not hold up. Activity calls are given as the source filed them. The call rests on the fitted dose curve; in most records, active means well fitted curve in the direction sought with a large enough effect; inconclusive means small, poorly fitted or top-dose-only effect, or another doubt; inactive means no such curve, though single readings can be large; an effect the other way counts as inactive or inconclusive.

Test: Confirmatory qHTS for small molecule stabilizers of the endoplasmic reticulum resident proteome: Secreted ER Calcium Modulated Protein (SERCaMP) assay (AID 1508628); further: nearly all actives have a fitted effect of over 40% in size
Conditions: SERCaMP secreted luciferase ER calcium/proteostasis reporter; series mostly up to 76.3 µM; activity change, negative = decrease: at the top concentration
Summary of the method: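 Reporter secretion upon ER calcium depletion (100 nM thapsigargin, 4 h, 37C) is measured as medium luminescence with coelenterazine, after 16 h compound pretreatment of SH-SY5Y-GLuc-SERCaMP cells; primary at three concentrations up to 38.3 uM, follow-up at 11 (up to 76.6 uM).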
On the % scale 0 is the no-effect control and ±100 the full control effect; potency means the concentration at half of the fitted maximal effect; tags describe the fitted curve by direction and shape.

Structure (SMILES)	Potency	activity change, negative = decrease
Oc1ccc(C2CNCCc3c2cc(O)c(O)c3Cl)cc1 (stereo not given)	inconclusive: 50.1 µM [inhibitor, single point]	
C=CC[C@@H]1C=C(C)C[C@H](C)C[C@H](OC)[C@H]2O[C@@](O)(C(=O)C(=O)N3CCCC[C@H]3C(=O)O[C@H](C(C)=C[C@@H]3CC[C@H](O)[C@H](OC)C3)[C@@H](C)[C@@H](O)CC1=O)[C@@H](C)C[C@@H]2OC	inconclusive: 22.4 µM [inhibitor, full curve, poor fit]	
CN(C)CCC=C1c2ccccc2C=Cc2ccccc21	inconclusive: 22.4 µM [inhibitor, partial curve]	
CC(=O)SC[C@@H](C)C(=O)N1CCC[C@H]1C(=O)N[C@@H](Cc1ccccc1)C(=O)O		inactive: -18.4%

Test: Cell Viability qHTS for small molecule stabilizers of the endoplasmic reticulum resident proteome (AID 1508629);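 further: compound exposure about 46 h in total before the viability read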;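 on max response: human SH-SY5Y neuroblastoma cells carrying the GLuc-SERCaMP reporter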
Conditions: cell viability counter-screen, 100 nM thapsigargin for final 4 h

Structure (SMILES)	max response	Potency
CCOc1cc(N)c(Cl)cc1C(=O)NCC1CN(Cc2ccc(F)cc2)CCO1 (stereo not given)	inactive: -7.94%	
NS(=O)(=O)c1cc(Cl)c(Cl)c(S(N)(=O)=O)c1	inactive: 21%	
Oc1ccc(C2CNCCc3c2cc(O)c(O)c3Cl)cc1 (stereo not given)	inactive: -10.9%	
C=CC[C@@H]1C=C(C)C[C@H](C)C[C@H](OC)[C@H]2O[C@@](O)(C(=O)C(=O)N3CCCC[C@H]3C(=O)O[C@H](C(C)=C[C@@H]3CC[C@H](O)[C@H](OC)C3)[C@@H](C)[C@@H](O)CC1=O)[C@@H](C)C[C@@H]2OC		inconclusive: 10 µM [cytotoxic, partial curve]
CN(C)CCC=C1c2ccccc2C=Cc2ccccc21		inconclusive: 15.8 µM [cytotoxic, partial curve]
CC(=O)SC[C@@H](C)C(=O)N1CCC[C@H]1C(=O)N[C@@H](Cc1ccccc1)C(=O)O	inactive: 10.6%	

Test: Primary qHTS for small molecule stabilizers of the endoplasmic reticulum resident proteome: Secreted ER Calcium Modulated Protein (SERCaMP) assay (AID 1508630)
Conditions: SH-SY5Y GLuc-SERCaMP (Gaussia luciferase released on ER calcium loss) secretion, thapsigargin, luminescence; activity change, negative = inhibition: at 38.4 µM (top of the series)
Summary of the method: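 The SH-SY5Y reporter protocol was run at 3 concentrations up to 38.3 uM (primary) or 11 concentrations (follow-up): 16 h compound, 100 nM thapsigargin for 4 h, then extracellular luciferase luminescence.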

Structure (SMILES)	Potency	activity change, negative = inhibition
CCOc1cc(N)c(Cl)cc1C(=O)NCC1CN(Cc2ccc(F)cc2)CCO1 (stereo not given)	inconclusive: 28.2 µM [inhibitor, single point] and inconclusive: 8.91 µM [inhibitor, partial curve, poor fit]	
O=C(NCCCCN1CCOCC1)c1cc2ccccc2o1	inconclusive: 7.49 µM [inhibitor, partial curve, poor fit]	
NS(=O)(=O)c1cc(Cl)c(Cl)c(S(N)(=O)=O)c1	inconclusive: 3.35 µM [inhibitor, full curve, poor fit]	
O=C1C(c2c(O)[nH]c3ccccc23)=Nc2ccccc21	inconclusive: 0.335 µM [inhibitor, full curve]	
Cc1cnc(NC(=O)C2=C(O)c3ccccc3S(=O)(=O)N2C)s1	inactive	
CC(C)c1nc(CN(C)C(=O)N[C@H](C(=O)N[C@@H](Cc2ccccc2)C[C@H](O)[C@H](Cc2ccccc2)NC(=O)OCc2cncs2)C(C)C)cs1	inconclusive: 28.2 µM [inhibitor, single point]	
CN(C)CCCNC(=O)c1ccc(-c2cc(O)c3ncccc3c2)cc1	inconclusive: 29.8 µM [inhibitor, single point]	
C[C@@]12C[C@@]3(O)O[C@@H](O1)[C@]1(COC(=O)c4ccccc4)[C@@H]3C[C@@]12O[C@@H]1O[C@H](CO)[C@@H](O)[C@H](O)[C@@H]1O		inactive: -1.58%
NS(=O)(=O)c1cc2c(cc1Cl)NC(C(Cl)Cl)NS2(=O)=O (stereo not given)	inconclusive: 31.6 µM [inhibitor, partial curve, poor fit]	
Nc1cccc2c1CN(C1CCC(=O)NC1=O)C2=O (stereo not given)	inconclusive: 0.0172 µM [inhibitor, full curve, poor fit]	
Oc1ccc(C2CNCCc3c2cc(O)c(O)c3Cl)cc1 (stereo not given)	inconclusive: 22.4 µM [inhibitor, single point] and inconclusive: 10 µM [inhibitor, partial curve, poor fit]	
COc1cc(C=CC(=O)O)ccc1O		inactive: -26.9%
COc1c(Cl)cc2c([nH]c3cnccc32)c1NC(=O)c1cccnc1C		inactive: 30.6%
O=c1ncn2nc(Sc3ccc(F)cc3F)ccc2c1-c1c(Cl)cccc1Cl	inconclusive: 0.053 µM [inhibitor, full curve]	
NC(N)=Nc1nc(CSCCC(N)=NS(N)(=O)=O)cs1		inactive: 216%
CC=C1C2C=C(C)CC1(N)c1ccc(=O)[nH]c1C2 (stereo not given)	inconclusive: 2.51 µM [inhibitor, full curve]	
c1ccc(CNc2nc(N3CCOc4ccccc43)nc3c2CCCC3)cc1	inconclusive: 29.8 µM [inhibitor, single point]	
C=CC[C@@H]1C=C(C)C[C@H](C)C[C@H](OC)[C@H]2O[C@@](O)(C(=O)C(=O)N3CCCC[C@H]3C(=O)O[C@H](C(C)=C[C@@H]3CC[C@H](O)[C@H](OC)C3)[C@@H](C)[C@@H](O)CC1=O)[C@@H](C)C[C@@H]2OC	inconclusive: 31.6 µM [inhibitor, partial curve, poor fit]	

Structure (SMILES)	Potency	activity change, negative = inhibition
O=C1CCC[C@@H]2[C@H]3CCC[N+]4([O-])CCC[C@@H](CN12)[C@@H]34 (stereo not given in full)		inactive: 63.6%
Clc1ccc(C2(c3ccc(-c4cn[nH]c4)cc3)CCNCC2)cc1		inactive: 315%
CN(C)CCC=C1c2ccccc2C=Cc2ccccc21	inconclusive: 31.6 µM [inhibitor, single point] and inconclusive: 10 µM [inhibitor, partial curve, poor fit] and inconclusive: 28.2 µM [inhibitor, single point]	
Cc1cn(-c2cc(NC(=O)c3ccc(C)c(Nc4nccc(-c5cccnc5)n4)c3)cc(C(F)(F)F)c2)cn1	inconclusive: 9.43 µM [inhibitor, single point]	
CNC(=O)[C@H](CC1=CN=C2C=CCC=C12)NC(=O)[C@@H](CC(=O)NO)CC(C)C	inconclusive: 0.668 µM [inhibitor, full curve, poor fit]	
CNC(=O)c1cccc(-c2ccc3c(N4CCOC[C@H]4C)nc(N4CCOC[C@H]4C)nc3n2)c1	inconclusive: 1.06 µM [inhibitor, full curve, poor fit]	
COc1ccc2c(c1)c(C1=C(c3c[nH]c4ccccc34)C(=O)NC1=O)cn2CCCN(C)C	inconclusive: 9.43 µM [inhibitor, partial curve]	
Cn1cnc2c(F)c(Nc3ccc(Br)cc3F)c(C(=O)NOCCO)cc21		inactive: 87.2%
CN(C)CCc1c[nH]c2ccc(C[C@H]3COC(=O)N3)cc12	inconclusive: 2.51 µM [inhibitor, full curve, poor fit] and inconclusive: 0.8 nM [inhibitor]	
Cc1cn([C@H]2C[C@H](N=[N+]=[N-])[C@@H](CO)O2)c(=O)[nH]c1=O	inactive	
Nc1ccc(S(N)(=O)=O)cc1	inconclusive: 31.6 µM [inhibitor, partial curve, poor fit] and inactive	
Cc1n[nH]c(C)c1Cc1sc2c(c1C(=O)N1C[C@H](O)CO1)c(=O)n(C)c(=O)n2CC(C)C	inconclusive: 0.0149 µM [inhibitor, full curve]	
COc1ccc(Cn2ccc3ccc(C(=O)NO)cc32)cc1	inconclusive: 0.841 µM [inhibitor, full curve, poor fit]	
COc1ccc(-c2cc(=O)c3c(O)cc(O[C@@H]4O[C@H](CO[C@@H]5O[C@@H](C)[C@H](O)[C@@H](O)[C@@H]5O)[C@@H](O)[C@H](O)[C@@H]4O)cc3o2)cc1O		inactive: 0%
N#CC(=C1Nc2ccccc2S1)c1ccnc(OCc2ccc(CN3CCOCC3)cc2)n1	active: 1.49 µM	
COc1ccc(-c2cc3nccn3c(Nc3ncccc3C(N)=O)n2)cc1OC		inactive: -14.8%
CCC(=C(c1ccc(O)cc1)c1ccc(OCCNC)cc1)c1ccccc1	inconclusive: 8.41 µM [inhibitor, partial curve, poor fit]	
